These are yes or no findings as the source states them, for the method shown. In cells and extracts the contact can be indirect. Some binding calls cover weakened binding; strength is not graded here. For some assays here: Where a sequence is shown, tags or fusion partners need not be part of it.
How the values were obtained:
[1] = target: T1, Derlin2, endogenous in 293T cells (human (endogenous in 293T)) (UniProt Q9GZP9); test: co-IP; untransfected 293T cells, NP40 lysis (0.5% NP40, 10 mM Tris-HCl, 150 mM NaCl, 5 mM MgCl2, pH 7.4), immunoprecipitation of endogenous proteins on protein A, 3 h at 4°C; pre-immune serum as control; blot for BAT3
T1 sequence: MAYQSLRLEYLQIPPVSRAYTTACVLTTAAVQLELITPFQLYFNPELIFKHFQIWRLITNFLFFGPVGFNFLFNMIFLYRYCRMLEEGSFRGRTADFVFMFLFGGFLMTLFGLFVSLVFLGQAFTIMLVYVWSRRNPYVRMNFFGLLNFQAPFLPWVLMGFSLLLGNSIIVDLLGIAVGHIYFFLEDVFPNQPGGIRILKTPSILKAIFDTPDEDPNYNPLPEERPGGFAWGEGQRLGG

Protein sequences, listed by entry. Tags and fused reporters are not part of them. Residues count along the entry.
UniProt Q9UBV2, residues 22-794: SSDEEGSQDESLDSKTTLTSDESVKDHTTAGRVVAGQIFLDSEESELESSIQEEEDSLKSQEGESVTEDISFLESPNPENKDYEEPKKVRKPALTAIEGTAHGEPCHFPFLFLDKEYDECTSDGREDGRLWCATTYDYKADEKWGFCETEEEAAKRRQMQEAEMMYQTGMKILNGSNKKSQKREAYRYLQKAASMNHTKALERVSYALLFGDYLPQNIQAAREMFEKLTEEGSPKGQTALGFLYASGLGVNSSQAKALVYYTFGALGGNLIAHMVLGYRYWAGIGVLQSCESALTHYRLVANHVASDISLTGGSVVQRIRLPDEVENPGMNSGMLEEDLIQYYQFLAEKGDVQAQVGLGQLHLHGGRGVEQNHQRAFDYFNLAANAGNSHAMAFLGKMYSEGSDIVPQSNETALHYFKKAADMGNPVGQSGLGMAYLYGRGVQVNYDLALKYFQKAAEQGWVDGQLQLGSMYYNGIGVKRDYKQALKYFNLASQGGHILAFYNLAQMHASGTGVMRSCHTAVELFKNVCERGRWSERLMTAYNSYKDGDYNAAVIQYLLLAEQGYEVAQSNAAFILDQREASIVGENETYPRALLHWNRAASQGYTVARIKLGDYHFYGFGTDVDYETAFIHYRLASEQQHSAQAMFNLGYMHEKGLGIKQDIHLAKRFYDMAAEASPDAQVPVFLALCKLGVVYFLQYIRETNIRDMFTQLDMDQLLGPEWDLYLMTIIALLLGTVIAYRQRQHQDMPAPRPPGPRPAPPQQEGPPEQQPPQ
UniProt P46379: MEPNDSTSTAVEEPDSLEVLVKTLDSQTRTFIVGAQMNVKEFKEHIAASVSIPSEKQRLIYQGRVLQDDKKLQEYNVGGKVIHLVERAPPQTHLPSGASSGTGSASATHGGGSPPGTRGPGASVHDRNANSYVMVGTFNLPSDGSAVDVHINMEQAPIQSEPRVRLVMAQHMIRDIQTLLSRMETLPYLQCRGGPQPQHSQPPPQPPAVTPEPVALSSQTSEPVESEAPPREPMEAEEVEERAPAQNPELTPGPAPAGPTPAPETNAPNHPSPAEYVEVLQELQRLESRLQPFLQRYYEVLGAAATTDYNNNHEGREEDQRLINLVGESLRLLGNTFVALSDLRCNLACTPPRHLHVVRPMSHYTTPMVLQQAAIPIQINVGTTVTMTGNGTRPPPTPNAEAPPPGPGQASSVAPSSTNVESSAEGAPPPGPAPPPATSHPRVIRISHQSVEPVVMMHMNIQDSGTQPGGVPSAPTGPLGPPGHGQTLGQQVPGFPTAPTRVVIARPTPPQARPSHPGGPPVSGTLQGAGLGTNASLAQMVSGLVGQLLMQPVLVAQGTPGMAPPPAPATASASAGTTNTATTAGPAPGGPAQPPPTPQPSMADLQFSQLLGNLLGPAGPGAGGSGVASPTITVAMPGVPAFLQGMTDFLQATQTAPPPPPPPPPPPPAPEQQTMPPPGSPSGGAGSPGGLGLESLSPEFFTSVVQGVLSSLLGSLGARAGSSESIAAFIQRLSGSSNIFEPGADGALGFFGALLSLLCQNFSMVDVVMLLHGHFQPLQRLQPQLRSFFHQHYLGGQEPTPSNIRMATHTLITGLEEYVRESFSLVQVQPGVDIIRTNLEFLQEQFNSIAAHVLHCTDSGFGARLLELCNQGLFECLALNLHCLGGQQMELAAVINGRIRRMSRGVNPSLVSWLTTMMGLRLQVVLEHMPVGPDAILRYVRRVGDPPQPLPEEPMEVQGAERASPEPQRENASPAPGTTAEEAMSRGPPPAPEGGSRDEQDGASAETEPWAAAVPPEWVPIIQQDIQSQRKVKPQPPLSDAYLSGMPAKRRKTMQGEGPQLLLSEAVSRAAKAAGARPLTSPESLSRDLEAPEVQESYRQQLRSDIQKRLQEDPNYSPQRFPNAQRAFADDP

[2] = target: T2, Derlin1, endogenous in 293T cells (human (endogenous in 293T)) (UniProt Q9BUN8); test: as above
T2 sequence: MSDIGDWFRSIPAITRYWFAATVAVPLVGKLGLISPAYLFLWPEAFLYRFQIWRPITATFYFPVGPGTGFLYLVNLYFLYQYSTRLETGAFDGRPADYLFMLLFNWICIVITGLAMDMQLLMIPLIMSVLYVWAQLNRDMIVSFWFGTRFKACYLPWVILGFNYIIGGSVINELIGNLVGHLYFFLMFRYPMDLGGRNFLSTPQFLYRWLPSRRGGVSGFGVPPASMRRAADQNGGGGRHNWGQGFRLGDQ

[3] = target: SEL1L, endogenous in 293T cells (human (endogenous in 293T)) (UniProt Q9UBV2); test: as above
Derlin2, overexpressed = target: T3, Derlin2, overexpressed (UniProt Q9GZP9); test: co-IP; 293T cells transiently transfected with Derlin2 or Derlin2-GFP, NP40 lysis, immunoprecipitation for Derlin2, blot for BAT3
T3 sequence: T1 sequence

[4] = target: T4, Derlin2-GFP fusion protein (UniProt Q9GZP9); test: as above
T4 sequence: T1 sequence

binding [1]: binds | binding [2]: no binding | binding [3]: no binding | binding (Derlin2, overexpressed): binds | binding [4]: binds
Substance: BAT3 (BAG6/Scythe), endogenous in 293T cells (from UniProt P46379 1-1132)

From paper PMC3234288
